Test results reported in PubChem BioAssay AID651820 (National Center for Advancing Translational Sciences (NCATS), 2012).
Among all 340,000 compounds or so, about 12,000 (3.5%) were called active. This list was built around the results that the source calls inconclusive (neither active nor inactive); the mix of calls is not that of the screen. Calls follow the shape of the dose curve; as a rule, active = well fitted inhibition curve with a large enough effect; inconclusive = small, poorly fitted or top-dose-only effect, or another doubt; inactive = no such curve, though single readings can be large or run the other way. Potencies of inconclusive entries are left out as doubtful fits.

Test: qHTS Assay for Inhibitors of Hepatitis C Virus (HCV)
Conditions: Huh7.5.1 HCVcc-Cre (HCVcc is cell-culture hepatitis C virus) infection, luciferase reporter, 44 h; activity change, negative = inhibition: at 41.8 µM (top of the series) unless noted
Procedure, shortened: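 Reporter virus HCVcc-Cre (~0.5 moi) infects cells exposed to compound; seeding density 1,000 cells/well with 4 h settling beforehand. Luminescence, 15 sec read, taken 44 h post-infection following a 15 min RT substrate incubation.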
% is scaled to controls: 0 for no effect and ±100 for the full control effect; potency is read from the fitted curve at half-maximal effect; tags tell the direction and shape of the fitted curve.

Compound | Potency | activity change, negative = inhibition
CCOc1ccc(CCNC(=O)c2ccc(OCc3c(C)noc3C)cc2)cc1OCC | inconclusive [inhibitor, partial curve] | 
Cc1ccc(C2c3[nH]c4ccccc4c3C[C@H]3C(=O)N(c4ccccc4C(=O)N4CCC(C(=O)O)CC4)C(=O)N23)cc1 (some centres undefined) |  | inactive: 11.1%
CCOC(=O)C1=C(C)NC2=C(C1c1ccc([N+](=O)[O-])cc1)S(=O)(=O)c1ccccc12 (centres undefined) | inconclusive [inhibitor, single point] | 
Cc1oc(-c2ccccc2Cl)nc1CN(C)C(C)c1ccon1 (centres undefined) |  | inactive: -2.65%
O=C(Cn1cnc2c(oc3ccccc32)c1=O)NCC1CCCO1 (centres undefined) |  | inactive: 0.739%
COc1cc(C(=O)Nc2cccc(-c3nncn3C)c2)cc(OC)c1OC | inconclusive [inhibitor, single point] | 
C/C(CC(=O)Nc1ccc(Cl)cc1Cl)=N\NC(=O)c1ccncc1 | inconclusive [inhibitor, single point] | 
O=C(CSc1nncs1)Nc1ccc(N2CCCCC2)cc1 | inconclusive [inhibitor, partial curve] | 
Cc1ccc(/C=N/NC(=O)CSc2nc3ccccc3n2C)s1 |  | inactive: -3.34%
C/C=C(/C)C(=O)Nc1cccc(C2=NOC3(C2)C[C@@H](C(N)=O)N(C(=O)[C@H]2CCC(=O)N2)C3)c1 (some centres undefined) | inconclusive [inhibitor, single point] | 
Nc1nonc1OCCN1CCN(c2ccc([N+](=O)[O-])c3cccnc23)CC1 | inconclusive [inhibitor, single point] | 
COc1ccc(OC)c(C2=NS(=O)(=O)N(C)C(C(=O)NCc3cccs3)=C2)c1 | inconclusive [inhibitor, single point] | 
O=C(Cc1ccccc1F)OCN1C(=O)c2ccccc2C1=O |  | inactive: 6.38%
CCOc1ccc(-c2c[n+]3c(n2-c2ccccc2)CCCCC3)cc1 | inconclusive [inhibitor, partial curve] | 
COc1ccc(N=C(C)c2c(O)n(C3CCCCC3)c(=O)[nH]c2=O)c(OC)c1 |  | inactive: 18.5%
CCOC(=O)N/N=C/c1c(C)nn(-c2cccc(C(F)(F)F)c2)c1Cl | active: 2.24 µM | 
O=C(CSc1nnc(Cn2cnc3ccccc32)o1)c1ccccc1 | inconclusive [inhibitor, single point] | 
CCOc1ccc(N2C(=O)CC(NC3CCN(C(=O)c4cccs4)CC3)C2=O)cc1 (centres undefined) |  | inactive: 12.3%
CC1(C)CC[C@]2(C(=O)O[C@@H]3O[C@H](CO)[C@@H](O)[C@H](O)[C@H]3O)CC[C@]3(C)C(=CCC4[C@@]5(C)CC[C@H](O[C@@H]6O[C@H](C(=O)O)[C@@H](O[C@H]7OC[C@@H](O)[C@@H](O)[C@@H]7O)[C@H](O)[C@H]6O)C(C)(C)C5CC[C@]43C)[C@@H]2C1 (some centres undefined) |  | inactive: 6.68%
